Reference: article PMC4336329 (PLoS ONE, 2015)
Among all 310,000 compounds or so, about 2,200 (0.71%) showed an effect of 50% or more. The effect is printed as a negative number. The list shows a part of the results.

biological target: human ether-à-go-go-related gene (hERG) potassium channel (human, UniProt Q12809); assay: primary screen, population patch clamp on CHO cells stably expressing hERG
Sequence (Q12809 whole entry, looked up): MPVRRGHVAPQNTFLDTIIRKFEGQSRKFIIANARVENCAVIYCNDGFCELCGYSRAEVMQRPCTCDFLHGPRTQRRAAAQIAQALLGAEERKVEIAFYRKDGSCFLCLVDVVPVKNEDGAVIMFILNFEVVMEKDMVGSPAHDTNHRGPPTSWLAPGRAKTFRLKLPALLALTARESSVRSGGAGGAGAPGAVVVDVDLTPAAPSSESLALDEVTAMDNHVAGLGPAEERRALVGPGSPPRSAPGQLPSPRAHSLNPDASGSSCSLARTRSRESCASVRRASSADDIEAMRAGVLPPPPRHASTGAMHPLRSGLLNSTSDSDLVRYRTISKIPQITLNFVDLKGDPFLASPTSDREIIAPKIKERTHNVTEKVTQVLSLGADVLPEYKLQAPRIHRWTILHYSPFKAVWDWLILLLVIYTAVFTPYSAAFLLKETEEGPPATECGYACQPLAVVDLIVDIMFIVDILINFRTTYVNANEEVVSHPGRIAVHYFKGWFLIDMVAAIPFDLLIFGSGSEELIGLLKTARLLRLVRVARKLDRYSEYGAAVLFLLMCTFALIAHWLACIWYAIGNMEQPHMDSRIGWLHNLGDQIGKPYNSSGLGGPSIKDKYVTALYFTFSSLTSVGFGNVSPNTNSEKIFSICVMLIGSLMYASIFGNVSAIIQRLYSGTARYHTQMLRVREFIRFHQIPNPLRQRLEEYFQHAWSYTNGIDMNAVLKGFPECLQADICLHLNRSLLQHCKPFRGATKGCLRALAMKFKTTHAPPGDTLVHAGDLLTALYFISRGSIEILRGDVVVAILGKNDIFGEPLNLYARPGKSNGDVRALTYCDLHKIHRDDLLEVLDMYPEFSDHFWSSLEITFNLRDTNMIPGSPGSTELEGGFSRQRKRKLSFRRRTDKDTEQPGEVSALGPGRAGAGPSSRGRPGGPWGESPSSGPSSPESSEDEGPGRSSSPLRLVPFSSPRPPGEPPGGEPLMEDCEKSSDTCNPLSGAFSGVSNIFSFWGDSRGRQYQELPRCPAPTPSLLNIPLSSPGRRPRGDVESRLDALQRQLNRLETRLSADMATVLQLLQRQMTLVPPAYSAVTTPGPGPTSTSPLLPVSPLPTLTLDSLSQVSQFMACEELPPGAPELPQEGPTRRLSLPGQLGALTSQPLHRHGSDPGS

SMILES | hERG current change (%, negative = inhibition) at 1uM [%]
COc1cccc(CNC(=O)CN2C(=O)CSc3ccc(S(=O)(=O)N4CCCC4)cc32)c1 | 4.06
CCOC(=O)C1(Cc2cccc(F)c2)CCN(C(=O)c2cscn2)CC1 | 8.76
Cc1nn(-c2ccccc2)c(N2CCCC2)c1/C=C1\N=C(c2ccc(OC(C)C)cc2)OC1=O | 9.93
Cn1c(=O)n(C)c2cc(/C=N/NC(=O)c3cc4cc(Br)ccc4o3)ccc21 | -0.404
CCNc1nc(NC(C)C)nc(SCCOC(=O)c2ccccc2)n1 | 1.57
COc1ccc2c(c1OC)C(=O)OC2C1c2c(cc3c(c2OC)OCO3)CCN1C.Cl.O (stereo not shown) | 1.9
CCOC(=O)c1cc(NC(=O)N(CC)C2CCCCC2)c(C)nc1C | -0.96
Cn1c(Cn2cnc3ccccc32)nnc1SCC(=O)CC(=O)Nc1ccccc1 | 7.33
O=C1c2ccccc2C(O)N1Cc1ccccc1 (stereo not shown) | 8.4
COc1cccc(OCCOCC(O)CN2CCN(Cc3ccc(Cl)cc3)CC2)c1.Cl (stereo not shown) | -37.9
COCCNc1nc(=S)[nH]c2cc(OC)c(OC)cc12 | 0.436
COc1ccc(/C=N/Nc2nc(C)cc(-c3ccccc3)n2)c(OC)c1 | 9.88
CCN(CC(=O)Nc1c(F)cccc1F)C(=O)c1ccc(OCc2c(C)noc2C)cc1 | 4.95
C/C(CCc1ccccc1)=N\NC(=O)CC(=O)NCCc1ccccc1 | 18.5
O=C(NCc1ccccn1)c1ccccc1OCc1ccc(Cl)cc1Cl | 2.83
CCC(C)c1ccc(NC(=S)NCCn2cc(Cl)cn2)cc1 (stereo not shown) | 4.45
C/C(=N\N1CCN(c2ccccc2)CC1)c1cccs1 | 6.76
CC(=O)Oc1ccc(C(=O)[C@H]2[C@H]3C(=O)N(c4cccc5ccccc45)C(=O)[C@H]3[C@@H]3C=CC=NN32)cc1 | 15.6
O=C(Nc1c(C(=O)N2CCC(N3CCCCC3)CC2)oc2ccccc12)c1ccc(F)cc1 | -47.7
Cc1ccc(NCc2nnc(SCC(N)=O)n2CC2CCCO2)c(C)c1 (stereo not shown) | 17.7
CC1(C)CC(NC(=O)c2cc(COc3cccc(C(F)(F)F)c3)on2)CCO1 (stereo not shown) | 8.46
COc1ccc(/C=N/OCC(=O)NCC(C)C)c(OC)c1 | 4.4

SMILES | hERG current change (%, negative = inhibition) at 1uM [%]
Cc1nc2ccccn2c1-c1csc(NCc2ccco2)n1 | -45.5
COc1ccc(C(=O)Nc2ccccc2C(=O)NCC2CCCO2)cc1 (stereo not shown) | 6.31
Cc1nc2ccccc2nc(C)c1=NOCc1cccc(Cl)c1 | 6.58
CCOc1ccc(C(=S)NC2CCCCC2)cc1OCC | 11.5
CCOC(=O)C1=NN(c2cccc(Cl)c2)C2=NC(C)=C(C(=O)OC)C(c3cccs3)N12 (stereo not shown) | 6.72
COc1ccc(C)c2sc(NC(=O)C3=COCCO3)nc12 | 11.8
O=C(Nc1ccc2c(c1)OCCO2)c1c(F)cccc1F | 8.77
COc1ccccc1Nc1nc(C2(C)CCC(=O)O2)cs1 (stereo not shown) | -0.499
O=C(Cc1nc2ccccc2[nH]1)c1ccc([N+](=O)[O-])cc1 | 7.9
O=c1[nH]c2ccccc2c(O)c1-c1cc2ccccc2oc1=O | 11.5
CCCCN(Cc1ccccc1)C1CCN(CCc2ccccc2)CC1 | -13.4
CCOc1cccc(NC(=O)C2CCCN(S(=O)(=O)c3ccc(OC)cc3)C2)c1 (stereo not shown) | 3.07
COc1ccccc1CCNC(=O)C(=O)NCC1OCCCN1S(=O)(=O)c1ccc(F)cc1C (stereo not shown) | 14.9
CC(=O)c1c(C(C)=O)c(C)n(-c2ccc(N)cc2)c1C | 5.42
CS(=O)(=O)Nc1ccc(C(=O)NCCSC2CCCCC2)cc1 | -8.88
O=C(/C=C/c1ccc2c(c1)OCO2)Nc1nc(-c2ccc(F)cc2)cs1 | 6.95
Cc1ccc(S(=O)(=O)CC2CSc3nc4ccccc4n32)cc1 (stereo not shown) | -0.204
CC(C)C(NC(=O)C1CCCCC1)C(=O)N1CCN(c2ccc(F)cc2)CC1 (stereo not shown) | -32.1
Clc1ccc(OCCCNCc2ccccc2)c(Br)c1.O=C(O)C(=O)O | -26.7
Cn1cnc([N+](=O)[O-])c1Oc1ccc2ccccc2c1 | 15.7
COc1ccccc1CN(C(=O)c1ccco1)C(C(=O)NC1CCCC1)c1ccncc1 (stereo not shown) | 12.4
